# According to the supplement of paper PMC8728848:
# This is one part of the list.
# How the values were obtained:
# Test in all cases: glycan array binding signal (z-score within array); higher = stronger binding
# Conditions in all cases: glycan notation: IUPAC condensed, linker removed
# Fuc(a1-2)Gal = molecular target: Fuc(a1-2)Gal
# Summary of the method: (§1)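 Glycan array binding is given as a within-array Z-score, which can be read as non-binding when negative. The arrays, 3228 of them, came from the Consortium for Functional Glycomics database and were retained only where the protein sequence was available. Z-scores were averaged across arrays of the same protein sequence at different concentrations or buffers and across linkers.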
# Fuc(a1-2)Gal(b1-3)GalNAc = molecular target: Fuc(a1-2)Gal(b1-3)GalNAc
# Summary of the method: as §1
# [1] = molecular target: Fuc(a1-2)Gal(b1-3)GalNAc(b1-3)Gal
# Summary of the method: as §1
# [2] = molecular target: Fuc(a1-2)Gal(b1-3)GalNAc(b1-3)Gal(a1-4)Gal(b1-4)Glc
# Summary of the method: as §1
# [3] = molecular target: Fuc(a1-2)Gal(b1-3)GalNAc(b1-3)Gal(b1-4)Glc
# Summary of the method: as §1
# [4] = molecular target: Fuc(a1-2)Gal(b1-3)GalNAc(b1-4)[Neu5Ac(a2-3)]Gal(b1-4)Glc
# Summary of the method: as §1
# [5] = molecular target: Fuc(a1-2)Gal(b1-3)[Fuc(a1-4)]GlcNAc
# Summary of the method: as §1
# Fuc(a1-2)Gal(b1-4)Glc = molecular target: Fuc(a1-2)Gal(b1-4)Glc
# Summary of the method: as §1
# Fuc(a1-2)Gal(b1-4)GlcNAc = molecular target: Fuc(a1-2)Gal(b1-4)GlcNAc
# Summary of the method: as §1
# [6] = molecular target: Fuc(a1-2)Gal(b1-4)GlcNAc(b1-3)Gal(b1-4)GlcNAc
# Summary of the method: as §1
# [7] = molecular target: Fuc(a1-2)Gal(b1-4)GlcNAc(b1-3)Gal(b1-4)GlcNAc(b1-3)Gal(b1-4)GlcNAc
# Summary of the method: as §1
# [8] = molecular target: Fuc(a1-2)Gal(b1-4)[Fuc(a1-3)]GalNAc(b1-3)Gal(b1-4)[Fuc(a1-3)]GlcNAc
# Summary of the method: as §1
# [9] = molecular target: Fuc(a1-2)Gal(b1-4)[Fuc(a1-3)]GalNAc(b1-3)Gal(b1-4)[Fuc(a1-3)]GlcNAc(b1-3)Gal(b1-4)[Fuc(a1-3)]GalNAc
# Summary of the method: as §1
# [10] = molecular target: Fuc(a1-2)Gal(b1-4)[Fuc(a1-3)]GlcNAc
# Summary of the method: as §1
# Fuc(a1-2)GlcNAc = molecular target: Fuc(a1-2)GlcNAc
# Summary of the method: as §1
# Fuc(a1-2)[Gal(a1-3)]Gal = molecular target: Fuc(a1-2)[Gal(a1-3)]Gal
# Summary of the method: as §1
# [11] = molecular target: Fuc(a1-2)[Gal(a1-3)]Gal(b1-3)GlcNAc
# Summary of the method: as §1
# [12] = molecular target: Fuc(a1-2)[Gal(a1-3)]Gal(b1-4)Glc
# Summary of the method: as §1
# [13] = molecular target: Fuc(a1-2)[Gal(a1-3)]Gal(b1-4)GlcNAc
# Summary of the method: as §1
# [14] = molecular target: Fuc(a1-2)[Gal(a1-3)]Gal(b1-4)[Fuc(a1-3)]GlcNAc
# Summary of the method: as §1
# [15] = molecular target: Fuc(a1-2)[Gal(a1-4)]Gal(b1-4)GalNAc
# Summary of the method: as §1
# [16] = molecular target: Fuc(a1-2)[GalNAc(a1-3)]Gal
# Summary of the method: as §1
# [17] = molecular target: Fuc(a1-2)[GalNAc(a1-3)]Gal(b1-3)GlcNAc
# Summary of the method: as §1
# [18] = molecular target: Fuc(a1-2)[GalNAc(a1-3)]Gal(b1-4)Glc
# Summary of the method: as §1
# [19] = molecular target: Fuc(a1-2)[GalNAc(a1-3)]Gal(b1-4)GlcNAc
# Summary of the method: as §1
# [20] = molecular target: Fuc(a1-2)[GalNAc(a1-3)]Gal(b1-4)[Fuc(a1-3)]GlcNAc
# Summary of the method: as §1
# [21] = molecular target: Fuc(a1-2)[GalNAc(a1-4)]Gal(b1-4)GlcNAc
# Summary of the method: as §1
# Fuc(a1-3)GlcNAc = molecular target: Fuc(a1-3)GlcNAc
# Summary of the method: as §1
# [22] = molecular target: Fuc(a1-3)[Gal(b1-4)]GlcNAc
# Summary of the method: as §1
# [23] = molecular target: Fuc(a1-3)[Gal(b1-4)]GlcNAc(b1-4)Gal(b1-4)[Fuc(a1-3)]GlcNAc
# Summary of the method: as §1
# [24] = molecular target: Fuc(a1-3)[Gal(b1-4)]GlcNAc(b1-4)Gal(b1-4)[Fuc(a1-3)]GlcNAc(b1-4)Gal(b1-4)[Fuc(a1-3)]GlcNAc
# Summary of the method: as §1
# [25] = molecular target: Fuc(a1-3)[Gal3S(b1-4)]GlcNAc
# Summary of the method: as §1
# [26] = molecular target: Fuc(a1-3)[GalNAc(b1-4)]Gal(b1-4)GlcNAc
# Summary of the method: as §1
# Fuc(a1-4)GlcNAc = molecular target: Fuc(a1-4)GlcNAc
# Summary of the method: as §1
# Fuc(b1-3)GlcNAc = molecular target: Fuc(b1-3)GlcNAc
# Summary of the method: as §1
# Gal(a1-2)Gal = molecular target: Gal(a1-2)Gal
# Summary of the method: as §1
# Gal(a1-3)Gal = molecular target: Gal(a1-3)Gal
# Summary of the method: as §1
# Gal(a1-3)Gal(b1-3)Glc = molecular target: Gal(a1-3)Gal(b1-3)Glc
# Summary of the method: as §1
# Gal(a1-3)Gal(b1-3)GlcNAc = molecular target: Gal(a1-3)Gal(b1-3)GlcNAc
# Summary of the method: as §1
# Gal(a1-3)Gal(b1-4)GlcNAc = molecular target: Gal(a1-3)Gal(b1-4)GlcNAc
# Summary of the method: as §1
# [27] = molecular target: Gal(a1-3)Gal(b1-4)[Fuc(a1-3)]GalNAc
# Summary of the method: as §1
# Gal(a1-3)GlcNAc = molecular target: Gal(a1-3)GlcNAc
# Summary of the method: as §1
# [28] = molecular target: Gal(a1-3)[Gal(a1-4)]Gal(b1-4)GlcNAc
# Summary of the method: as §1
# Gal(a1-4)Gal(b1-4)Gal = molecular target: Gal(a1-4)Gal(b1-4)Gal
# Summary of the method: as §1
# Gal(a1-4)Gal(b1-4)GalNAc = molecular target: Gal(a1-4)Gal(b1-4)GalNAc
# Summary of the method: as §1
# Gal(a1-4)GlcNAc = molecular target: Gal(a1-4)GlcNAc
# Summary of the method: as §1
# Gal(a1-6)Glc = molecular target: Gal(a1-6)Glc
# Summary of the method: as §1
# Gal(b1-2)Gal = molecular target: Gal(b1-2)Gal
# Summary of the method: as §1
# Gal(b1-3)Gal = molecular target: Gal(b1-3)Gal
# Summary of the method: as §1
# Gal(b1-3)GalNAc = molecular target: Gal(b1-3)GalNAc
# Summary of the method: as §1
# [29] = molecular target: Gal(b1-3)GalNAc(b1-3)Gal(a1-4)Gal(b1-4)Glc
# Summary of the method: as §1
# [30] = molecular target: Gal(b1-3)GalNAc(b1-3)Gal(b1-4)Glc
# Summary of the method: as §1
# [31] = molecular target: Gal(b1-3)GalNAc(b1-3)Gal(b1-4)GlcNAc
# Summary of the method: as §1
# [32] = molecular target: Gal(b1-3)GalNAc(b1-4)Gal(b1-4)Glc
# Summary of the method: as §1
# [33] = molecular target: Gal(b1-3)GalNAc(b1-4)[Neu5Ac(a2-3)]Gal(b1-4)Glc
# Summary of the method: as §1
# [34] = molecular target: Gal(b1-3)[Fuc(a1-4)]GlcNAc
# Summary of the method: as §1
# [35] = molecular target: Gal(b1-3)[Fuc(a1-4)]GlcNAc(b1-3)Gal(b1-4)GlcNAc
# Summary of the method: as §1
# [36] = molecular target: Gal(b1-3)[Fuc(a1-4)]GlcNAc(b1-3)Gal(b1-4)[Fuc(a1-3)]GlcNAc
# Summary of the method: as §1
# [37] = molecular target: Gal(b1-3)[GlcNAc(b1-6)]GalNAc
# Summary of the method: as §1
# [38] = molecular target: Gal(b1-3)[GlcNAc(b1-6)]GlcNAc
# Summary of the method: as §1
binder,measurement,setting,value
7WC (Trifolium repens) (protein) MGTITSYAVVFDAGSTGSRVHVYHFDQNLDLLHIGKDVEFYNKIQPGLSAYADNPEQAAKSLIPLLEQAENVVPEDFHSKTPIRLGATAGLRLLDGDASERILQAVRDMLNNKSTFNVQPDAVSIIDGTQEGSYLWVTINYVLGNLGKRFTNTVGVIDLGGGSVQMAYAVSKKTARNAPKVTDGEDPYIKKIVLKGKPYDLYVHSYLHFGREASRAEILKVTHGSASPCILAGFDGIYTYSGEEFKASAPTSGANFDKCKKIIQKALKLDYPCPYQNCTFGGIWNGGGGSGQKKLFAASSFFYLPQDVGMVDPNKSNLKLRPVDLENKAKIVCTLNVEDVKSAYPLLEKFNIVPYACMDLIYQYELLVDGFGLDPLQEITAGEKIEYQEALVDAAWALGNAVEAVLLLPKFERLMYFVVEHHHHHH,glycan array binding signal (z-score),Fuc(a1-2)Gal,-0.33
same,glycan array binding signal (z-score),Fuc(a1-2)Gal(b1-3)GalNAc,-0.345
same,glycan array binding signal (z-score),[1],-0.476
same,glycan array binding signal (z-score),[2],-0.428
same,glycan array binding signal (z-score),[3],-0.261
same,glycan array binding signal (z-score),[4],-0.411
same,glycan array binding signal (z-score),[5],-0.35
same,glycan array binding signal (z-score),Fuc(a1-2)Gal(b1-4)Glc,-0.213
same,glycan array binding signal (z-score),Fuc(a1-2)Gal(b1-4)GlcNAc,-0.429
same,glycan array binding signal (z-score),[6],-0.484
same,glycan array binding signal (z-score),[7],-0.438
same,glycan array binding signal (z-score),[8],-0.347
same,glycan array binding signal (z-score),[9],0.143
same,glycan array binding signal (z-score),[10],-0.391
same,glycan array binding signal (z-score),Fuc(a1-2)GlcNAc,-0.382
same,glycan array binding signal (z-score),Fuc(a1-2)[Gal(a1-3)]Gal,-0.294
same,glycan array binding signal (z-score),[11],-0.338
same,glycan array binding signal (z-score),[12],-0.264
same,glycan array binding signal (z-score),[13],-0.227
same,glycan array binding signal (z-score),[14],-0.4
same,glycan array binding signal (z-score),[15],-0.147
same,glycan array binding signal (z-score),[16],-0.24
same,glycan array binding signal (z-score),[17],-0.374
same,glycan array binding signal (z-score),[18],-0.35
same,glycan array binding signal (z-score),[19],-0.282
same,glycan array binding signal (z-score),[20],-0.306
same,glycan array binding signal (z-score),[21],-0.278
same,glycan array binding signal (z-score),Fuc(a1-3)GlcNAc,-0.113
same,glycan array binding signal (z-score),[22],-0.354
same,glycan array binding signal (z-score),[23],0.351
same,glycan array binding signal (z-score),[24],-0.327
same,glycan array binding signal (z-score),[25],-0.435
same,glycan array binding signal (z-score),[26],-0.112
same,glycan array binding signal (z-score),Fuc(a1-4)GlcNAc,-0.573
same,glycan array binding signal (z-score),Fuc(b1-3)GlcNAc,-0.302
same,glycan array binding signal (z-score),Gal(a1-2)Gal,-0.221
same,glycan array binding signal (z-score),Gal(a1-3)Gal,-0.388
same,glycan array binding signal (z-score),Gal(a1-3)Gal(b1-3)Glc,-0.298
same,glycan array binding signal (z-score),Gal(a1-3)Gal(b1-3)GlcNAc,-0.197
same,glycan array binding signal (z-score),Gal(a1-3)Gal(b1-4)GlcNAc,-0.476
same,glycan array binding signal (z-score),[27],-0.377
same,glycan array binding signal (z-score),Gal(a1-3)GlcNAc,-0.055
same,glycan array binding signal (z-score),[28],-0.211
same,glycan array binding signal (z-score),Gal(a1-4)Gal(b1-4)Gal,-0.302
same,glycan array binding signal (z-score),Gal(a1-4)Gal(b1-4)GalNAc,-0.213
same,glycan array binding signal (z-score),Gal(a1-4)GlcNAc,-0.077
same,glycan array binding signal (z-score),Gal(a1-6)Glc,0.374
same,glycan array binding signal (z-score),Gal(b1-2)Gal,-0.144
same,glycan array binding signal (z-score),Gal(b1-3)Gal,0.804
same,glycan array binding signal (z-score),Gal(b1-3)GalNAc,0.029
same,glycan array binding signal (z-score),[29],-0.189
same,glycan array binding signal (z-score),[30],-0.241
same,glycan array binding signal (z-score),[31],-0.426
same,glycan array binding signal (z-score),[32],0.286
same,glycan array binding signal (z-score),[33],-0.291
same,glycan array binding signal (z-score),[34],-0.275
same,glycan array binding signal (z-score),[35],-0.357
same,glycan array binding signal (z-score),[36],1.71
same,glycan array binding signal (z-score),[37],0.32
same,glycan array binding signal (z-score),[38],0.87
